Measured values: patent US4603125A, “Substituted o-phenylenediamine acridine compounds having antitumor activity” (Development Finance Corporation of New Zealand, priority 1982, dated 1986)

What was measured:
P388 Leukemia = assay: P388 leukemia in vivo (increase in lifespan); details: at the stated dose (OD)
Lewis lung carcinoma = Lewis lung carcinoma in vivo (increase in lifespan); details: at the stated dose (OD)
Text: LL. is the Lewis lung carcinoma.

SMILES | active, P388 (P388 Leukemia) | active, Lewis lung (Lewis lung carcinoma)
CNc1cc(NS(C)(=O)=O)ccc1Nc1c2ccccc2nc2ccccc12 [Compound 1] | Y (implies a significant value of drug activity at the stated dose) | Y (implies a significant value of drug activity at the stated dose)
CNc1cc(NS(C)(=O)=O)ccc1Nc1c2ccccc2nc2c(C)cccc12 [Compound 12] | Y (implies a significant value of drug activity at the stated dose) | Y (implies a significant value of drug activity at the stated dose)
CNc1cc(NS(C)(=O)=O)ccc1Nc1c2ccccc2nc2c(OC)cccc12 [Compound 13] | Y (implies a significant value of drug activity at the stated dose) | Y (implies a significant value of drug activity at the stated dose)
CNc1cc(NS(C)(=O)=O)ccc1Nc1c2ccc(F)cc2nc2c(C)cccc12 [Compound 18] | Y (implies a significant value of drug activity at the stated dose) | Y (implies a significant value of drug activity at the stated dose)
CNc1cc(NS(C)(=O)=O)ccc1Nc1c2ccc(Cl)cc2nc2c(C)cccc12 [Compound 19] | Y (implies a significant value of drug activity at the stated dose) | Y (implies a significant value of drug activity at the stated dose)
CN(C)c1cc(NS(C)(=O)=O)ccc1Nc1c2ccccc2nc2ccccc12 [Compound 32] | Y (implies a significant value of drug activity at the stated dose) | Y (implies a significant value of drug activity at the stated dose)
CNc1cc(NC(=O)OC)ccc1Nc1c2ccc(Cl)cc2nc2c(C)cccc12 [Compound 56] | Y (implies a significant value of drug activity at the stated dose) | Y (implies a significant value of drug activity at the stated dose)
CNc1cc(NC(=O)OC)ccc1Nc1c2ccc(Br)cc2nc2c(C)cccc12 [Compound 57] | Y (implies a significant value of drug activity at the stated dose) | Y (implies a significant value of drug activity at the stated dose)
CNc1cc(NC(=O)OC)ccc1Nc1c2ccccc2nc2c(C)cccc12 [Compound 58] | Y (implies a significant value of drug activity at the stated dose) | Y (implies a significant value of drug activity at the stated dose)
CNc1cc(NS(=O)(=O)c2ccc(N)cc2)ccc1Nc1c2ccccc2nc2cc(Br)ccc12 [Compound 63] | Y (implies a significant value of drug activity at the stated dose) | –
CNc1cc(NS(=O)(=O)c2ccc(N)cc2)ccc1Nc1c2ccccc2nc2c(C)cccc12 [Compound 64] | Y (implies a significant value of drug activity at the stated dose) | –
Nc1ccc(S(=O)(=O)Nc2ccc(Nc3c4ccccc4nc4ccccc34)c(NCCO)c2)cc1 [Compound 65] | Y (implies a significant value of drug activity at the stated dose) | –
CNc1cc(NC(=O)Oc2ccccc2)ccc1Nc1c2ccccc2nc2ccccc12 [Compound 66] | Y (implies a significant value of drug activity at the stated dose) | –
COc1cc(NS(C)(=O)=O)ccc1Nc1c2ccccc2nc2ccccc12 [m-AMSA, 4'-(9-acridinylamino)methanesulphon-m-anisidide, reference compound] | Y (implies a significant value of drug activity at the stated dose) | –
